{
  "source": "the supplement of paper PMC10126150",
  "note": "Values marked as one replicate rest on one cluster of the flow cell; about a third of the high ones do not repeat.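 Note: ATP exposure 15 min at 22 °C before imaging.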",
  "data": [
    {"tested_on": "ATP", "test": "switch fluorescence ratio, 500 uM ATP over buffer (Cy3 cluster intensity, sum of 5 cycles each) (fold (ratio)); higher = stronger signal-on switching upon ATP binding; sequences stand for … in TCGTCGGCAGCGTCAGATGTGTATAAGAGACAGTTTTTTTTTTTTTTTTTTTTTTTTT…TC", "settings": "aptamer strand: ATP DNA aptamer (quencher-CACCTGGGGGAGTATTGCGGAGGAAGG + anchor), 100 nM annealed; ATP concentration: 500 uM; one replicate", "in_short": "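Between each of five buffer/ATP cycles, the flow-cell was stripped with NaOH and re-annealed. Each cycle imaged Cy3-labelled switching-strand clusters, annealed to 100 nM quencher-labelled ATP aptamer on a modified Illumina MiSeq flow-cell, first in selection buffer and then after 15 min with 500 uM ATP at 22 °C. The fluorescence ratio is summed target-cycle over summed buffer-cycle Cy3 intensity per cluster, averaged per switch-domain sequence, with clusters outside 100-1000 RFU excluded.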", "values": [
      {"sequence": "CTGCATGTGG", "switch fluorescence ratio": 1.05},
      {"sequence": "CTGCATTTTC", "switch fluorescence ratio": 1.5},
      {"sequence": "CTGCCAAACT", "switch fluorescence ratio": 1.1},
      {"sequence": "CTGCCCCGTT", "switch fluorescence ratio": 1.49},
      {"sequence": "CTGCCCGGAG", "switch fluorescence ratio": 1.33},
      {"sequence": "CTGCCGACTG", "switch fluorescence ratio": 1.04},
      {"sequence": "CTGCGAAATA", "switch fluorescence ratio": 1.39},
      {"sequence": "CTGCGATTC", "switch fluorescence ratio": 3.23},
      {"sequence": "CTGCGCGCTC", "switch fluorescence ratio": 1.36},
      {"sequence": "CTGCGGCAGT", "switch fluorescence ratio": 1.06},
      {"sequence": "CTGCGGCAT", "switch fluorescence ratio": 1.29},
      {"sequence": "CTGCGGGACA", "switch fluorescence ratio": 1.03},
      {"sequence": "CTGCGGTAAC", "switch fluorescence ratio": 1.96},
      {"sequence": "CTGCGGTATA", "switch fluorescence ratio": 1.06},
      {"sequence": "CTGCTACATA", "switch fluorescence ratio": 1.06},
      {"sequence": "CTGCTCCTT", "switch fluorescence ratio": 0.986},
      {"sequence": "CTGCTGCGTA", "switch fluorescence ratio": 1.02},
      {"sequence": "CTGCTTAGTA", "switch fluorescence ratio": 0.997},
      {"sequence": "CTGCTTGATA", "switch fluorescence ratio": 0.974},
      {"sequence": "CTGCTTTTGG", "switch fluorescence ratio": 0.972},
      {"sequence": "CTGGAAATTA", "switch fluorescence ratio": 1.02},
      {"sequence": "CTGGAACAAA", "switch fluorescence ratio": 1.02},
      {"sequence": "CTGGAACGGT", "switch fluorescence ratio": 0.966},
      {"sequence": "CTGGAAGCGG", "switch fluorescence ratio": 1.06},
      {"sequence": "CTGGAAGGTT", "switch fluorescence ratio": 1.01},
      {"sequence": "CTGGACAACT", "switch fluorescence ratio": 1.08},
      {"sequence": "CTGGACAGCT", "switch fluorescence ratio": 1.01},
      {"sequence": "CTGGACATGC", "switch fluorescence ratio": 1.1},
      {"sequence": "CTGGAGGG", "switch fluorescence ratio": 1},
      {"sequence": "CTGGAGGGCG", "switch fluorescence ratio": 1.06},
      {"sequence": "CTGGAGTCCC", "switch fluorescence ratio": 1.02},
      {"sequence": "CTGGATCGC", "switch fluorescence ratio": 1.05},
      {"sequence": "CTGGATGGTC", "switch fluorescence ratio": 1.05},
      {"sequence": "CTGGCCTAAG", "switch fluorescence ratio": 1.01},
      {"sequence": "CTGGCTGGC", "switch fluorescence ratio": 1.16},
      {"sequence": "CTGGCTTCGC", "switch fluorescence ratio": 1.07},
      {"sequence": "CTGGCTTGAG", "switch fluorescence ratio": 0.955},
      {"sequence": "CTGGGACAGC", "switch fluorescence ratio": 1.01},
      {"sequence": "CTGGGACCAT", "switch fluorescence ratio": 1},
      {"sequence": "CTGGGAGAGA", "switch fluorescence ratio": 1},
      {"sequence": "CTGGGAGCA", "switch fluorescence ratio": 1.17},
      {"sequence": "CTGGGATGTA", "switch fluorescence ratio": 1.01},
      {"sequence": "CTGGGCACTG", "switch fluorescence ratio": 0.992},
      {"sequence": "CTGGGCGCCT", "switch fluorescence ratio": 1.04},
      {"sequence": "CTGGGCTATG", "switch fluorescence ratio": 0.992},
      {"sequence": "CTGGGCTGTG", "switch fluorescence ratio": 0.945},
      {"sequence": "CTGGGCTTCC", "switch fluorescence ratio": 2.33},
      {"sequence": "CTGGGGCA", "switch fluorescence ratio": 1.02},
      {"sequence": "CTGGGGCAAA", "switch fluorescence ratio": 1.28},
      {"sequence": "CTGGGGGCTG", "switch fluorescence ratio": 0.948},
      {"sequence": "CTGGGGGTC", "switch fluorescence ratio": 0.92},
      {"sequence": "CTGGGTATA", "switch fluorescence ratio": 1.01},
      {"sequence": "CTGGGTCCGT", "switch fluorescence ratio": 1.11},
      {"sequence": "CTGGGTGGAG", "switch fluorescence ratio": 1.01},
      {"sequence": "CTGGGTGGTC", "switch fluorescence ratio": 1},
      {"sequence": "CTGGGTTATG", "switch fluorescence ratio": 1.01},
      {"sequence": "CTGGGTTGGA", "switch fluorescence ratio": 0.976},
      {"sequence": "CTGGTCCGAG", "switch fluorescence ratio": 0.995},
      {"sequence": "CTGGTCGCAA", "switch fluorescence ratio": 1.64},
      {"sequence": "CTGGTGATAC", "switch fluorescence ratio": 3.55},
      {"sequence": "CTGGTTAAAT", "switch fluorescence ratio": 1.01},
      {"sequence": "CTGTAAGACA", "switch fluorescence ratio": 0.991},
      {"sequence": "CTGTAAGTAT", "switch fluorescence ratio": 1},
      {"sequence": "CTGTAATCTA", "switch fluorescence ratio": 1.04},
      {"sequence": "CTGTAGGCTT", "switch fluorescence ratio": 1.05},
      {"sequence": "CTGTAGGGTA", "switch fluorescence ratio": 0.998},
      {"sequence": "CTGTAGTGAG", "switch fluorescence ratio": 1.06},
      {"sequence": "CTGTAGTTCG", "switch fluorescence ratio": 1.06},
      {"sequence": "CTGTATACTA", "switch fluorescence ratio": 1.03},
      {"sequence": "CTGTATGCGT", "switch fluorescence ratio": 1.01},
      {"sequence": "CTGTATGTTA", "switch fluorescence ratio": 0.955},
      {"sequence": "CTGTATTGGT", "switch fluorescence ratio": 1.04},
      {"sequence": "CTGTCAGCTG", "switch fluorescence ratio": 1.01},
      {"sequence": "CTGTCATACA", "switch fluorescence ratio": 0.988},
      {"sequence": "CTGTCATTAC", "switch fluorescence ratio": 3.65},
      {"sequence": "CTGTCGCACA", "switch fluorescence ratio": 1.79},
      {"sequence": "CTGTCGGGC", "switch fluorescence ratio": 1.02}
    ]}
  ]
}
